In all, about 310,000 compounds went through this assay and about 14,000 (4.5%) showed an effect of 50% or more. Effects have a minus sign here. The list shows a part of the results.
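Also: peak tail current of the secondary pulse compared with the same well before compound.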

This assay deals with human ether-à-go-go-related gene (hERG) potassium channel (human, UniProt Q12809). The assay is described as follows: primary screen, population patch clamp on CHO cells stably expressing hERG.
human ether-à-go-go-related gene (hERG) potassium channel, sequence (Q12809 whole entry, looked up): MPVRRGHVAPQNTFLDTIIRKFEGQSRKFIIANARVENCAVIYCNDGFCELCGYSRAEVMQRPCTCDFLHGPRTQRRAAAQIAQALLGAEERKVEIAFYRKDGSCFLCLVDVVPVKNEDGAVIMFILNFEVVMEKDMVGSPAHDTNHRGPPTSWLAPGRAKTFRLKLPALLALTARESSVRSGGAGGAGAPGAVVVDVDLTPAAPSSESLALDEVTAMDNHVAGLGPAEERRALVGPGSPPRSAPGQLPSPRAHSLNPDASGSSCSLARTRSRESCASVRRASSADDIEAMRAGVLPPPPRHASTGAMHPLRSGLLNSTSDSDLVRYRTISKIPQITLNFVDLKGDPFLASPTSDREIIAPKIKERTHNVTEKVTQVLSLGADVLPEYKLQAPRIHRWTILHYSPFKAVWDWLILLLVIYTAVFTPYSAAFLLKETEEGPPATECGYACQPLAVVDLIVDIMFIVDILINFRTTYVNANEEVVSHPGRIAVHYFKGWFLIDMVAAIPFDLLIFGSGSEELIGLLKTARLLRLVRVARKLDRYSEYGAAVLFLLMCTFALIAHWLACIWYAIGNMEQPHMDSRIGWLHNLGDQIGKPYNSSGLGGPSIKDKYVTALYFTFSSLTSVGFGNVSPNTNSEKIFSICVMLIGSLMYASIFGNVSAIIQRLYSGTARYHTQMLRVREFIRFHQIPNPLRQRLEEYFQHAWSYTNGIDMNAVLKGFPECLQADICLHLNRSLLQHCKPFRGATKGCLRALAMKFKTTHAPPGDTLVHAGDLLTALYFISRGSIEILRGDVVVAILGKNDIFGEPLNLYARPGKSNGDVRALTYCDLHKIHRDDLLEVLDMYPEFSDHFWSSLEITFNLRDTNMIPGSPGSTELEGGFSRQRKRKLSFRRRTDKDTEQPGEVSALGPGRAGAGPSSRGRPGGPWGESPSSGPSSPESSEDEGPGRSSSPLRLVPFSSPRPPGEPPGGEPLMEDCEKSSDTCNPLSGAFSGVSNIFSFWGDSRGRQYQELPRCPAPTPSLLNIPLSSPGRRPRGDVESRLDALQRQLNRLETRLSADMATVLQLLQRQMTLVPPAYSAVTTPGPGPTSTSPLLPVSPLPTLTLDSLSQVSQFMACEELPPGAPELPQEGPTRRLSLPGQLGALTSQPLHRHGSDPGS
For `COc1nc(C)cc(C)c1S(=O)(=O)c1ccc(Cl)cc1`, the “hERG current change (%, negative = inhibition) at 10uM” value is -6.97%.
As for `CC(NC(=O)C(=O)N/N=C\c1cccc([N+](=O)[O-])c1)c1ccccc1` (stereo not shown), the “hERG current change (%, negative = inhibition) at 10uM” value turned out to be 11.2%.
Take `Cc1ccc(-c2nn(CC(=O)Nc3ccc4c(c3)nc3n4CCOC3)c(=O)c3ccccc23)cc1`: the “hERG current change (%, negative = inhibition) at 10uM” value is given as -17.4%.
On to `CN1C(=O)C(C)(C)c2cc(S(=O)(=O)N3CCCC3C(=O)NCc3ccccc3Cl)ccc21` (stereo not shown), for which the “hERG current change (%, negative = inhibition) at 10uM” value is -4.71%.
The same measure for `Cc1sc2nc(SCC(=O)N3CCN(CCO)CC3)n(-c3ccccc3)c(=O)c2c1C`: -3.7%; for `O=C(OCCN1C(=O)c2ccccc2C1=O)C1CCN(S(=O)(=O)c2cccs2)CC1`: -31.9%.
Regarding `CC(C)c1ccc(NC(=S)NC2CC3C=CC2C3)cc1` (stereo not shown), the “hERG current change (%, negative = inhibition) at 10uM” value is reported as -29.8%.
In the case of `CCC(C)(C)c1nnc(NC(=O)CCC2CCCCC2)s1` it was 5.3%.
With `Cc1ccc(NC(=O)N2CCc3ccccc32)cc1C`, the “hERG current change (%, negative = inhibition) at 10uM” value amounted to 8.5%.
Regarding `O=c1[nH][nH]c(=O)c2cc(N3CCCC3)ccc12`, the “hERG current change (%, negative = inhibition) at 10uM” value came to 4.02%.
On to `Nc1c(S(=O)(=O)c2cccc(Cl)c2)c2nc3ccccc3nc2n1CCN1CCOCC1`, for which the “hERG current change (%, negative = inhibition) at 10uM” value is -5.28%.
Take `COc1cccc(CN2CC(C(=O)NCCSc3nnnn3C)CCC2=O)c1` (stereo not shown): the “hERG current change (%, negative = inhibition) at 10uM” value is listed as 18%.
With `COc1cccc(/C=N/n2c(COc3ccccc3)n[nH]c2=S)c1O`, the “hERG current change (%, negative = inhibition) at 10uM” value came to 5.67%.
Consider `CC(C)c1cc(C(=O)O)n(-c2ccccc2)n1`, for which the “hERG current change (%, negative = inhibition) at 10uM” value is reported as 12.1%.
The same measure for `O=C(COC(=O)CCCOc1ccc(Cl)cc1Cl)Nc1cccc(Cl)c1`: 3.62%; for `N#Cc1cn(CCCOc2ccccc2)c2ccccc12`: -3.6%.
Take `COC(=O)c1ccc(Nc2cc(C)nc3nc(C)nn23)cc1`: the “hERG current change (%, negative = inhibition) at 10uM” value was -37.8%.
Consider `COc1ccccc1NC(=S)N(Cc1ccccc1)Cc1cccnc1`, for which the “hERG current change (%, negative = inhibition) at 10uM” value is -42.9%.
In the case of `O=c1[nH]c(CCC2CCCC2)nc2ccccc12`, the “hERG current change (%, negative = inhibition) at 10uM” value is given as -4.43%.
As for `COc1ccc(S(=O)(=O)N(CC(=O)NCc2cccnc2)c2ccc(C)cc2)cc1OC`, the “hERG current change (%, negative = inhibition) at 10uM” value is -10%.
For the molecule `CCOc1ccc(C(=O)Nc2cc(-c3nc4ccccc4[nH]3)ccc2Cl)cc1[N+](=O)[O-]`, the “hERG current change (%, negative = inhibition) at 10uM” value is -29.1%.
The same measure for `CCCN1CC(=O)N2Cc3[nH]c4ccccc4c3C[C@H]2C1=O`: 14.3%; for `Cc1ccccc1-n1c(C)nnc1SCC(=O)NC1CCCc2ccccc21` (stereo not shown): -5.87%; for `CSc1nsc(SC)c1C(=O)N1CCN(S(=O)(=O)c2ccc(C)cc2)C1C(C)C` (stereo not shown): -6.82%.
Take `CCc1cc2c(=O)n3c(nc2s1)-c1[nH]c2ccc(OC)cc2c1CC3`: the “hERG current change (%, negative = inhibition) at 10uM” value is given as 11.5%.
In the case of `CCN(Cc1ccccc1)C(=O)Cn1c(=O)n(CCC(=O)N2CCCCC2)c(=O)c2sccc21`, the “hERG current change (%, negative = inhibition) at 10uM” value was 0.148%.
`Cc1cc([N+](=O)[O-])nn1CC(=O)N1CCN(Cc2ccccc2)CC1`: the “hERG current change (%, negative = inhibition) at 10uM” value is reported as -8.96%.
`COc1ccccc1OCCNC(=O)C1CC(=O)N(c2ccc3c(c2)OCCO3)C1` (stereo not shown): the “hERG current change (%, negative = inhibition) at 10uM” value is -0.264%.
As to `Cc1c(C(=O)OCC(C)(C)CN(C)C)oc2ccccc12.Cl`, the “hERG current change (%, negative = inhibition) at 10uM” value is given as -52%.
`Nc1nc(-c2ccccc2Br)cs1`: the “hERG current change (%, negative = inhibition) at 10uM” value is 2.46%.
In the case of `Cc1cccc(C)c1NC(=O)Cn1c(=O)n(CCCC(=O)NCc2ccco2)c(=O)c2sccc21` it was 2.06%; in that of `Cc1cc2ccc(C)c(C)c2nc1SCC(=O)c1cccs1`, -2.49%; in that of `O=C1NC(=O)C(=Cc2coc3ccc(O)cc3c2=O)C(=O)N1`, 6.98%.
For the molecule `CC(=O)Nc1cccc(NC(=O)c2cccc(OCc3ccccc3)c2)c1`, the “hERG current change (%, negative = inhibition) at 10uM” value turned out to be 10.6%.
The same measure for `CC(=O)c1ccc(N2CCN(C(=O)CCN3C(=S)NC(C)(C)CC3C)CC2)cc1` (stereo not shown): -5.53%; for `CCOC(=O)CNc1nc(Cl)nc(Nc2ccccc2)n1`: 6.74%; for `COc1ccc(OCC(=O)NCCNC(=O)c2cccnc2)cc1`: 20.3%.
For the molecule `CCOC(=O)c1c(C)[nH]c(C(=O)N/N=C/c2cc([N+](=O)[O-])ccc2O)c1C`, the “hERG current change (%, negative = inhibition) at 10uM” value turned out to be 33.7%.
The same measure for `COc1ccc(-c2csc(NC(=O)c3ccccc3C(=O)O)n2)cc1`: 14.2%.
Take `O=C1C=C(c2ccc(Cl)c(C(F)(F)F)c2)C[C@@H](c2ccc3c(c2)OCO3)C1`: the “hERG current change (%, negative = inhibition) at 10uM” value is given as 20.3%.
In the case of `COc1ccc(CC(=O)NC2CCS(=O)(=O)C2)cc1` (stereo not shown) it was 10%; in that of `O=C(Nc1nc2ccccc2s1)C1c2ccccc2Oc2ccccc21`, -3.75%; in that of `Cc1cc(NC(=O)CCC(=O)N(Cc2ccco2)C(C(=O)NCC2CCCO2)c2ccncc2)no1` (stereo not shown), 5.9%.

The record behind these values is paper PMC4336329 (PLoS ONE, 2015).
